Laboratory results as given in the supplement of paper PMC4604168 (melanoma cell lines).
Some of the results follow. Single values are uncertain, as repeats are few or missing.

tested on: A375; test: cell count relative to DMSO control; melanoma cells; higher = more viable cells; settings: library dose: standard library concentration; 72 h
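Also: cells treated in 1,536-well plates, then fixed and DAPI-stained, with nuclei counted from automated high-throughput microscope images.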

Q: Which cell count does the source give for `COc1cc2c(Oc3ccc4[nH]c(C)cc4c3F)ncnc2cc1OCCCN1CCCC1` [cediranib] + CCc1ccc(CCOc2ccc(CC3SC(=O)NC3=O)cc2)nc1 [pioglitazone] (first compound 2 µM, partner dose 10 µM) here?
A: Its cell count is 108%.

Q: How did the cell count turn out when `CCCCCCCCc1ccc(CCC(N)(CO)CO)cc1` [fingolimod] + CCc1ccc(CCOc2ccc(CC3SC(=O)NC3=O)cc2)nc1 [pioglitazone] (first compound 10 µM, partner dose 10 µM) was run?
A: The cell count was 32.5%.

Q: Which cell count does the source give for `NC(=O)c1ccc(N(C(N)=O)c2c(F)cccc2F)nc1-c1ccc(F)cc1F` + c1cc(-c2cnn3cc(-c4ccc(OCCN5CCCCC5)cc4)cnc23)ccn1 [Dorsomorphin] (first compound 2 µM, partner dose 2 µM) here?
A: Its cell count is 120%.

Q: For `NC(=O)c1ccc(N(C(N)=O)c2c(F)cccc2F)nc1-c1ccc(F)cc1F` + COc1cc(N2CCC(N3CCN(C)CC3)CC2)ccc1Nc1ncc(Cl)c(Nc2ccccc2S(=O)(=O)C(C)C)n1 [NVP-TAE684] (first compound 2 µM, partner dose 0.4 µM), which cell count is on record?
A: The cell count was 74.6%.

Q: Which cell count does the source give for `CC(C)(C)c1cnc(CSc2cnc(NC(=O)C3CCNCC3)s2)o1` + CCN(CC)CCCCNc1ncc2cc(-c3cc(OC)cc(OC)c3)c(NC(=O)NC(C)(C)C)nc2n1 [PD173074] (first compound 0.05 µM, partner dose 0.5 µM) here?
A: Its cell count is 94.2%.

Q: With `Cc1ccc(NC(=O)c2cccc(N(C)C)c2)cc1NC(=O)c1ccc(O)cc1` + O=C1NC(=O)/C(=C/c2ccc(-c3ccc(F)cc3O)o2)S1 [AS252424] (first compound 10 µM, partner dose 5 µM) as the compound, how does the cell count read?
A: Its cell count is 147%.

Q: Which cell count does the source give for `Cc1ccc(NC(=O)c2cccc(N(C)C)c2)cc1NC(=O)c1ccc(O)cc1` + COc1ccc2c(c1)CCC1C2CCC2(C)C(NCCCCCCN3C(=O)C=CC3=O)CCC12 [U73122] (first compound 10 µM, partner dose 2 µM) here?
A: Its cell count is 65.7%.

Q: `COc1cc2c(Oc3ccc4[nH]c(C)cc4c3F)ncnc2cc1OCCCN1CCCC1` [cediranib] + O=C1NC(=O)/C(=C/c2ccc(-c3ccc(F)cc3O)o2)S1 [AS252424] (first compound 2 µM, partner dose 5 µM) was tested. Which cell count did it give?
A: The cell count was 145%.

Q: Which cell count does the source give for `Cc1ccc(NC(=O)c2cccc(N(C)C)c2)cc1NC(=O)c1ccc(O)cc1` + COc1cc(N2CCC(N3CCN(C)CC3)CC2)ccc1Nc1ncc(Cl)c(Nc2ccccc2S(=O)(=O)C(C)C)n1 [NVP-TAE684] (first compound 10 µM, partner dose 0.4 µM) here?
A: The cell count was 92%.

Q: How did the cell count turn out when `CC(C)(C)c1cnc(CSc2cnc(NC(=O)C3CCNCC3)s2)o1` + Cc1cc([N+](=O)[O-])ccc1NS(=O)(=O)c1cc(Cl)ccc1Cl [FH535] (first compound 0.05 µM, partner dose 5 µM) was run?
A: The cell count was 86.6%.

Q: Which cell count does the source give for `COc1cc2c(Oc3ccc4[nH]c(C)cc4c3F)ncnc2cc1OCCCN1CCCC1` [cediranib] + O=C(O)C(=O)Nc1sc2c(c1C(=O)O)CCNC2 [TCS401] (first compound 2 µM, partner dose 8.33333 µM) here?
A: The cell count was 194%.

Q: `COc1cc2c(Oc3ccc4[nH]c(C)cc4c3F)ncnc2cc1OCCCN1CCCC1` [cediranib] + COc1ccc(COc2ccc(Cc3cnc(N)nc3N)cc2OC)cc1 [GW2580] (first compound 2 µM, partner dose 5 µM) was tested. Which cell count did it give?
A: Its cell count is 109%.

Q: With `NC(=O)c1ccc(N(C(N)=O)c2c(F)cccc2F)nc1-c1ccc(F)cc1F` + Oc1cc(-c2nc(-c3ccccc3)[nH]c2-c2ccncc2)ccc1Cl [L779450] (first compound 2 µM, partner dose 1 µM) as the compound, how does the cell count read?
A: Its cell count is 85.6%.

Q: `NC(=O)c1ccc(N(C(N)=O)c2c(F)cccc2F)nc1-c1ccc(F)cc1F` + N#Cc1c(O)c2c(-c3ccc(-c4ccccc4O)cc3)csc2[nH]c1=O [A769662] (first compound 2 µM, partner dose 10 µM) was tested. Which cell count did it give?
A: Its cell count is 118%.

Q: Which cell count does the source give for `CC(C)(C)c1cnc(CSc2cnc(NC(=O)C3CCNCC3)s2)o1` + O=C(Nc1ccccc1)c1cc([N+](=O)[O-])ccc1Cl [GW9662] (first compound 0.05 µM, partner dose 10 µM) here?
A: Its cell count is 117%.
